Experimental data published in PubChem BioAssay AID1508623 (National Center for Advancing Translational Sciences (NCATS), 2021).
Out of some 48,000 compounds screened, about 450 (0.94%) were called active. Not shown: some 19% with an inconclusive outcome. Calls come from the whole dose curve; as a rule, active = well fitted inhibition curve with a large enough effect; inconclusive = small, poorly fitted or top-dose-only effect; inactive = no such curve, though single readings can be large or run the other way. The list shows a part of the results.

assay: Primary qHTS for Identification of Small Molecule Inhibitors of Huntingtin Promoter Activity; conditions: HEK293 HTT promoter firefly luciferase reporter (activity 0% = vehicle and -100% = no light), 24 h; series mostly up to 57.5 µM; activity change, negative = inhibition: at the top concentration; note: nearly all actives have a fitted effect of over 50% in size
In short: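 Luminescence was read after Dual-Glo reagent and a 10 min room-temperature incubation. Values were normalized to vehicle (0% activity) and zero RLU (-100% activity). Reporter HEK293 cells had been exposed to compounds (up to 57.5 uM final) for 24 h.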

Activity change, negative = inhibition, inactive:
CCN(CC)C(=O)Cn1c(=O)n(-c2ccc(OC)cc2OC)c(=O)c2c(C)c(C(=O)N(CC)CC)sc21 -9.3%
COc1ccc(OC)c(NC(=O)Cn2ccc3ccccc3c2=O)c1 -0.815%
COc1ccccc1C(=O)Nc1nnc(SCc2cc(=O)c3cc(Cl)ccc3[nH]2)s1 -9.74%
COc1ccc(NC(=O)c2c(-c3ccc(C)cc3)nnc3ccccc23)cc1Cl -28.7%
O=S(=O)(c1ccccc1)c1nc(-c2ccc(Cl)cc2Cl)oc1N1CCCCC1 -9.26%
CCN(CC)CCCNC(=O)c1cn(CC)c2ccc(S(=O)(=O)N3CCc4ccccc4C3)cc2c1=O -4.12%
Cc1sc2ncn(CC(=O)N3CCN(c4ccc(F)cc4)CC3)c(=O)c2c1S(=O)(=O)N1CCCCC1 -9.05%
Cc1ccc(S(=O)(=O)c2cn(CC(=O)Nc3ccc4c(c3)OCO4)c3ccccc3c2=O)cc1 -17.6%
Cc1cccc2sc(N(CCCN(C)C)C(=O)c3ccc(Cl)s3)nc12 -7.2%
COc1cc(C2C(C(=O)OCC(C)C)=C(C)N=C3SCCC(=O)N32)ccc1OCc1ccccc1 (stereo unspecified) -15.4%
Cc1cccc(NC(=O)Cn2nnc(C(=O)Nc3ccc(F)c(Cl)c3)c2N)c1 -15.3%
COc1cccc(NC(=O)CSc2nc(=O)n(Cc3ccco3)c3c2CCC3)c1 -57.9%
N#Cc1c(NC(=O)c2cccc3ccccc23)sc2c1CCCC2 -29.7%
CC1=C(C(=O)Nc2ccc(C)cc2C)C(C(C)C)n2nc(SCc3ccccc3Cl)nc2N1 (stereo unspecified) -10.9%
Cc1cc(C)c2nc(N(Cc3cccnc3)C(=O)c3ccc(S(=O)(=O)N(C)C)cc3)sc2c1 -21.6%
CCN1CCN(c2cc3c(cc2F)c(=O)c(S(=O)(=O)c2ccc(OC)cc2)cn3CC)CC1 0.739%
Cn1c(C(=O)NCc2ccccc2F)cc2oc3ccccc3c21 -17.2%
O=C(c1ccco1)n1nc(-c2ccccc2)nc1NCc1ccc(F)cc1 2.66%
CCN1CCN(c2oc(-c3ccc(COc4ccc(C)cc4)o3)nc2C#N)CC1 -24.8%
CCCCNc1ncnc2c1nnn2C -3.4%
COc1ccc2oc(-c3cccc(NC(=O)c4ccc(C#N)cc4F)c3)nc2c1 -4.73%
COc1cc(C(=O)Nc2ccc3[nH]c(=O)sc3c2)cc(OC)c1OC 12.1%
CC1=C(C(=O)Nc2cccnc2)C(c2cccc(F)c2)n2nc(SCc3ccccc3)nc2N1 (stereo unspecified) -12.5%
COc1cccc(NC(=O)Cn2c(=O)n(-c3ccc(Cl)cc3)c(=O)c3oc4ccccc4c32)c1 -22.9%
Cc1ccc(S(=O)(=O)N2CCN(Cc3noc(CCC(=O)N4CCCCC4)n3)CC2)c(C)c1 -23.1%
CC(C)Cn1c(=O)c2sccc2n2c(CCCC(=O)NCCc3ccccc3)nnc12 -6.97%
COc1cccc(C(=O)NCC(=O)OCc2cc(=O)n3c(C)csc3n2)c1 4.42%
Cc1nc(Nc2ccc(Cl)cc2)cc(-c2ccccc2)n1 37.4%
COc1ccccc1CNC(=O)NCc1noc2ccc(C)cc12 -24.6%
COc1ccc(CNC(=O)c2nc(SC(C)C)ncc2Cl)cc1 -22%
Cc1ccn2c(Nc3ccc4c(c3)OCO4)c(-c3ccc(N(C)C)cc3)nc2c1 30.3%
CCOC(=O)c1c(-c2ccccc2)csc1NC(=O)c1cc(-c2ccc(Br)cc2)on1 0.503%
Cc1nc2ccc(S(=O)(=O)CCC(=O)Nc3ccc(C)c(C)c3)cc2s1 -17.1%
COCCCNC(=O)c1sc2nc3n(c(=O)c2c1C)CCC3 30.9%
CCOc1ccc(C2=NC(c3ccc(OC)cc3)=Nc3ccc(Cl)cc3N2)cc1 57%
COc1ccccc1CNC(=O)CN1C(=O)COc2ccc(S(=O)(=O)N3CCC(C)CC3)cc21 -3.18%
O=C(Cn1cc(S(=O)(=O)N2CCCC2)c(S(=O)(=O)N2CCCC2)c1)Nc1cccc(F)c1 -8.75%
CCc1ccc(NC(=O)C(C)n2nnc3sc(-c4ccccc4)cc3c2=O)cc1 (stereo unspecified) 15%
COc1ccc(NC(=O)/C(C#N)=C/c2cc(C)n(-c3ccc(F)cc3)c2C)cc1 5.1%
CC(C)C(=O)N(Cc1ccccc1)S(=O)(=O)c1ccc2c(c1)oc(=O)n2C -10.2%
Cc1ccc(-n2c(=O)c3c4c(sc3n(Cc3cccc(Cl)c3)c2=O)CCC4)cc1C -22.5%
Cc1nc2nc(SCC(=O)O)nn2c(C)c1Cc1c(F)cccc1Cl -8.91%
Cc1ccc(CN(C(=O)COc2ccc(Cl)c(C)c2)C2CCS(=O)(=O)C2)o1 (stereo unspecified) -28.5%
Cc1ccc(Cl)cc1NC(=O)Cn1c(=O)n(CCCS(=O)(=O)C2CCCCC2)c(=O)c2ccccc21 -19.5%
CCOc1ccc(NC(=O)Cn2cc(C(=O)c3ccc(CC)cc3)c(=O)c3cc(OC)c(OC)cc32)cc1 -1.79%
COc1ccc(S(=O)(=O)NCCCO)cc1-c1nnc2c3ccccc3c(C)nn12 -11.7%
COc1ccc2cc3cc(C(=O)N4CCN(c5cccc(Cl)c5)CC4)sc3nc2c1 -0.584%
COc1ccc(NS(=O)(=O)c2ccc3c(c2)CCN3C(=O)CCC(=O)O)cc1Cl -13.2%
CCc1ccc(-n2c(=O)c3sc4ccccc4c3n(CC(=O)NC3CCCCC3)c2=O)cc1 -5.85%
Cc1ccc(NC(=O)Cn2nc(-c3ccncc3)ccc2=O)cc1Cl -5.91%
CC(C)CCNC(=O)CSc1nc2ccccc2nc1Cc1ccccc1 2.4%
Cc1cc(NC(=O)CCS(=O)(=O)c2cc(Br)cc3c2N(C(=O)C2CC2)CC3)ccc1Br -18.1%
COc1cc2c(cc1OC)C(COc1ccc3c(C)cc(=O)oc3c1)N(C(=O)C(C)C)CC2 (stereo unspecified) -10.9%
CCOC(=O)c1nc(Nc2ccc(C(C)=O)cc2)c2ccccc2n1 -19.6%
O=C(Nc1c(C(=O)Nc2ccc(F)cc2)oc2ccccc12)c1cc2ccccc2o1 5.66%
COc1ccc(Cn2c(=O)c3cccnc3n(CC(=O)Nc3ccc(C)c(F)c3)c2=O)cc1 7.34%
Cc1cc(Oc2c(C(F)(F)F)oc3c(CN4CCC(C)CC4)c(O)ccc3c2=O)cc(C)c1Cl -33.6%
Cc1ccc(C)c(CNC(=O)c2ccc3c(c2)nc2n3CCCCC2)c1 9.69%
C[C@H](NC(=O)OC(C)(C)C)c1nnc(SCc2c(F)cccc2Cl)o1 -32.1%
O=C(O)CP(=O)(O)O 1.13%
CCc1ccc(NC(=O)Cn2nc3c4ccccc4n(Cc4ccccc4)cc-3c2=O)cc1 -7.72%
